Assay results taken from PMC6919601, “Identification of Plasmodium dipeptidyl aminopeptidase allosteric inhibitors by high throughput screening” (PLoS ONE, 2019).
About 230 (0.21%) of roughly 110,000 compounds showed an effect of 50% or more. This is one part of the list.

Target: DPAP1 (Plasmodium falciparum, UniProt Q8IIJ9)
Test: primary screen, percent inhibition; read by cleavage of a fluorogenic dipeptide substrate; higher = more effect of the substance
Set-up: species or system P. falciparum D10 trophozoite lysates; single well
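Further: 30 min substrate incubation versus DMSO and 10 µM JCP410 controls.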

DPAP1, sequence (Q8IIJ9 whole entry, looked up): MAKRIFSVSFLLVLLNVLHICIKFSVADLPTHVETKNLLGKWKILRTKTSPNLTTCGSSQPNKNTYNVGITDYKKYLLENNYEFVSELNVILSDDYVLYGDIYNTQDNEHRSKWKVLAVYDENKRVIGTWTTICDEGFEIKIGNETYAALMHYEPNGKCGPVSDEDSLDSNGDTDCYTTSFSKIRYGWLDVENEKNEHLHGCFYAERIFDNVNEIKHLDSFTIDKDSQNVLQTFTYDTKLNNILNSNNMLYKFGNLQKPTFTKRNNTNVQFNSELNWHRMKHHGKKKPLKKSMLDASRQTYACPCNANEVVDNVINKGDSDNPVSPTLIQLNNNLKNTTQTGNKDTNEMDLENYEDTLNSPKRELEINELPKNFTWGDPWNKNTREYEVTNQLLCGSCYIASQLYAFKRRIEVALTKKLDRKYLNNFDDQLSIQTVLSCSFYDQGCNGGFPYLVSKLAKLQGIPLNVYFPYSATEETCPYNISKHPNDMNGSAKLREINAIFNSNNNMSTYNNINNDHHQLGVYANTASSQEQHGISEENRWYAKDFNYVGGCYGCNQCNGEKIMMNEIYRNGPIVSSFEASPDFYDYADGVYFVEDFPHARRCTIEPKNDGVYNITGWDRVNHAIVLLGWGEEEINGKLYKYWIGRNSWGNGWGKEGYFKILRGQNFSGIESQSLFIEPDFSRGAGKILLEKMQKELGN

Point of comparison: Cc1ccccc1CN1CCC(O)CC1, “% Inhibition @ 10 uM” value -1.77%. Against it:
- COc1nc(NCC(C)C)nc(Oc2ccc(O)nn2)n1 — higher, -0.958%
- Cc1c2cnn(CC(=O)N3CCOCC3)c(=O)c2c(C)n1Cc1ccc(Cl)cc1 — higher, 1.22%
- O=C(Nc1cnc2ccccc2c1)c1cccc(F)c1 — higher, 1.69%
- Cc1nn2c(C(F)(F)F)cc(-c3ccco3)nc2c1-c1ccccc1 — higher, -1.43%
- CCOc1cc(C2C(C(=O)c3cc4ccccc4o3)=C(O)C(=O)N2Cc2ccco2)ccc1O (centres unmarked) — lower, -1.96%
- CCOC(=O)c1cnc2cc(-c3ccc(C)cc3)nn2c1-c1ccccc1 — higher, 1.52%
- CC1(C)Cc2c(c(N3CCOCC3)nc3sc(C(=O)NCc4ccccc4)c(N)c23)CO1 — higher, -1.72%
- CC1=NCCN1S(=O)(=O)c1cc(C)c(Cl)cc1Cl — lower, -2.65%
- FC(F)(F)c1cccc(CSc2nc3cccnc3[nH]2)c1 — lower, -4.14%
- N#CCNC(=O)c1ccc(OCc2ccccc2)cc1 — higher, 9%
- O=C(CCCCCCC(=O)Nc1cccc2ccccc12)Nc1cccc2ccccc12 — higher, -1.29%
- COc1ccc(C2CC(=O)N=C(Nc3nc(C)c4ccc(C)cc4n3)N2)cc1 (centres unmarked) — higher, 19.2%
- Cc1ccc2onc(CC(=O)N3CCN(c4ccccn4)CC3)c2c1 — higher, 3.71%
- O=C1NC2(CCCCC2)N(C(=O)c2ccccc2Br)C2=C1CCCC2 — higher, 0.366%
- CCc1cccc2c(C(=O)C(F)(F)F)cn(CC(=O)N(CC)CC)c12 — lower, -2.9%
- CCCCN1CCN(c2nc(-c3ccccc3)c3cc(C)ccc3n2)CC1 — lower, -7.89%
- CC1=C(C(=O)Nc2ccccc2)C(c2cccs2)C(C#N)=C(SCC(N)=O)N1 (centres unmarked) — higher, 0.962%
- Cc1nn(CC(O)Cn2cnc3c2c(=O)n(C)c(=O)n3C)c(C)c1Br (centres unmarked) — higher, -1.18%
- CCCS(=O)(=O)N1CCC(C(=O)NCCCN2CCOCC2)CC1 — lower, -5.43%
- CSc1ccc(C2C=C(c3ccc(Cl)cc3)Nc3ncnn32)cc1 (centres unmarked) — lower, -7.08%
- COCCCn1c(=O)c2sccc2n2c(CCCC(=O)NCc3ccccc3)nnc12 — higher, 1.1%
- COc1ccc(C2CC(=O)c3cnc(N)nc3C2)cc1OC (centres unmarked) — higher, 6.57%
- CCc1ccc(CNCc2c(C(=O)O)n(Cc3ccccc3C)c3cc(OC)ccc23)cc1 — higher, 2%
- COC(=O)c1c(NC(=O)c2nc3ncccn3n2)sc(C(=O)N(C)C)c1C — higher, 4.08%
- CC(C)(C)c1ccc(C(=O)N2CCC(C(=O)N3CCN(c4ccccc4F)CC3)CC2)cc1 — lower, -2.46%
- COc1ccc(CCNc2oc(/C=C/c3ccc(F)cc3)nc2C#N)cc1OC — higher, 2.54%
- COc1ccccc1N1C(=O)C2C(c3cccc(C)c3)OC3(C(=O)c4ccccc4C3=O)C2C1=O (centres unmarked) — lower, -2.98%
- O=C1NCCCN1Cc1cccc(Cl)c1 — higher, -1.75%
- O=C(CCc1nnc2ccc(N3CCOCC3)nn12)NCc1ccc2c(c1)OCO2 — lower, -6.95%
- Cn1c(C(O)(c2ccccc2)C(O)c2ccco2)nc2ccccc21 (centres unmarked) — higher, -0.996%
- Cc1nn(CCCC(=O)N2CC(C)CC(C)C2)c(=O)c2c1sc1ccccc12 (centres unmarked) — lower, -3.43%
- CCOCCCNC(=O)C1c2ccccc2C(=O)N(C2CCCC2)C1c1cccs1 (centres unmarked) — higher, -1.4%
- CCN(CC)C(=O)CNC(=S)N(CCCN1CCOCC1)Cc1cccs1 — lower, -2.14%
- O=C(Cn1ncc2c3ccccc3n(Cc3cccc(Cl)c3)c2c1=O)N1CCOCC1 — higher, 1.8%
- COc1ccccc1NC(=O)C1CC(=O)N(c2ccc(F)cc2)C1 (centres unmarked) — higher, 3.69%
- OCC1CCCN(c2ncccn2)C1 (centres unmarked) — higher, 4.98%
- O=C(O)CSc1nc2ccccc2n2cnnc12 — higher, -1.14%
- Cc1ccc2c(c1)C1C=CCC1C(c1ccc([N+](=O)[O-])cc1)N2 (centres unmarked) — higher, 4.61%
- OCCN(CCO)Cc1ccccc1F — lower, -2.34%
- CCC1CCCCN1C(=O)CCCCn1c(=S)[nH]c2c([nH]c3ccc(OC)cc32)c1=O (centres unmarked) — lower, -2.19%
- Cc1ccc(C(=O)O)cc1-c1ccc(C=C2C(=O)OC3(CCCCC3)OC2=O)o1 — higher, 1.97%
- Cc1ccc(OCC(=O)NCc2ccco2)c(C(C)(C)C)c1 — lower, -2.6%
- N#CCNC(=O)[C@H](CSCc1ccccc1)NC(=O)c1cccc(F)c1 — lower, -6.98%
- Cc1nc2scc(C)n2c(=O)c1S(=O)(=O)N1CCC(C)CC1 — higher, -1.55%
- COc1cc(Br)c(CCn2c(=O)[nH]c(=O)c3sc(N)nc32)cc1OC — higher, 2.31%
- Cc1cc(O)c(C2=Nc3ccccc3SC(c3cccc(O)c3)C2)c(=O)o1 (centres unmarked) — higher, 6.08%
- CCN(CC)c1ccc(NC(=O)COc2cc(C)ccc2C)cc1 — higher, 2.01%
- CC(=O)C1=C(C)Nc2ncnn2C1c1ccc(OCc2ccccc2)cc1 (centres unmarked) — higher, 2.38%
- Cc1ccc(C)c(CN2CCCN(C(=O)c3sc4nc5n(c(=O)c4c3C)CCCCC5)C2)c1 — higher, 0.943%
